This is one part of the list.

The labels stand for the following.
T1: UNK ZnF1-3 (human, UniProt Q9C0B0 31-174)
T1 sequence: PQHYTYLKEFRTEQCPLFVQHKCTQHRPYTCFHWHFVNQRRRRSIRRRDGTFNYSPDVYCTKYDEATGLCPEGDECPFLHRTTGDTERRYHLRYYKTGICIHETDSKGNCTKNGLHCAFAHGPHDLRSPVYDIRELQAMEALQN

B1: chr5:3590733:3590734:-_ENSMUSG00000040302_ENSMUST00000042753|mus_hu|FALSE|FALSE (ssRNA)
RNA: GGGAGUUCUACAGUCCGACGAUCUGAGUUCCCUGCAGAAGUGUUCAAAGCAGCUUUACAAAAUCCAGACAUCUCUGAGUGGAAGUCUUGUCUAAAAUCCUCUGUGUCUUUAUGCUCUGUAACCAAUUUCUUCUUUGUCACGUACAACAGAGGAUUGAGCAUCA
B2: chrX:70776531:70776532:+_ENSG00000147162_ENST00000373719|perfect_dup|motif|central (ssRNA)
RNA: GGGAGUUCUACAGUCCGACGAUCCUGUUGCAGUACACUUGCUAAAUUGGAAUGUGCAGCAGCAAACUCUGGGAAGACUUCGGAUGCUUUGCGAUACAGGCGAACUGCCUCUUCAAUGUUGCCCUGUUCCCGUUUGAUGUUGGCCAACAGAGGAUUGAGCAUCA
B3: chr3:125295114:125295115:-_ENSG00000144909_ENST00000296220|hu_mus|motif|central (ssRNA)
RNA: GGGAGUUCUACAGUCCGACGAUCAACAUUAAAAAAAGACAUGGCAUUCUGACUUGGUCUCCGCUGGGAUAUGGGAGAAUUACCACGGGAUGCCAGCGAGAAGCUCCGGGACUUCAGGGGAGGGUUAUUCUUUCCAAUAGCUUCCAACAGAGGAUUGAGCAUCA
B4: chr12:21621489:21621490:+_ENSG00000121350_ENST00000240651|hu_mus|FALSE|FALSE (ssRNA)
RNA: GGGAGUUCUACAGUCCGACGAUCGACUUUGACAUACUCUUGUCCUCUGGUGCACCUCAGCAUCAACUCAUGGUCUGCGCCCAGGCCUUGUGCGUUGUAUUUUCCCAGCAAUACAACCUUAUAGUUAAAAAACUUUGUGACAUGCAACAGAGGAUUGAGCAUCA
B5: chr4:115894766:115894767:+_ENSMUSG00000028698_ENSMUST00000030464|mus_hu|mus_mus_mus_hu_True|68_68 (ssRNA)
RNA: GGGAGUUCUACAGUCCGACGAUCUUCCACACGGAAAUGUACUUCGGGUUUUCCAACGGCCAGUACCGUCCAGCCAAAACUACCCGAACAGGGUCCUCCCCCUCUCUCCUACAGAACACAACAAAAUGCCCCCGAACUUUCAAGCAACAGAGGAUUGAGCAUCA
B6: 56345045_56345841_383_CDS_ENSG00000134852_ENST00000309964|human|control|control (ssRNA)
RNA: GGGAGUUCUACAGUCCGACGAUCAUUACCAGGAAGCAUGGAUCCCAGUUCUUUAAUGAGAACAUUAAAUUGAUCUCUACGUUUCUUUUCAGAUUUGUUUCUAGAUACUCUUUUCGCUUUGUCCUUGUCAUCUUCUUCCACCAACAACAGAGGAUUGAGCAUCA
B7: chr17:60770872:60770873:+_ENSG00000011028_ENST00000303375|hu_hu|hu_hu_hu_mus_True|38_98 (ssRNA)
RNA: GGGAGUUCUACAGUCCGACGAUCUCUUUAAAAAAAAUUCCUUUUUUACAAACAAUAAUAGCACAUUUCGAGAAUCAAGAACUACAAUAGAGGGUCCAUGUCUUCGAUUUGUUCACAUCGUCCUGCACUGGGACACGGGGACUGCAACAGAGGAUUGAGCAUCA
B8: chr6:76550321:76550322:+_ENSG00000196586_ENST00000369975|hu_hu|motif|central (ssRNA)
RNA: GGGAGUUCUACAGUCCGACGAUCAACAACUGAGCUCUUUUCAUUAAAAUGUAUUUCUACAAAUUUCCCAAAUCGACUGCGGUUAUUGUUGCGAACAGUCUUCGCAUUUCCAAAGGCUUCUAGGAGUGGGUUAGCUUCAACAAUCAACAGAGGAUUGAGCAUCA
B9: chr2:179515052:179515053:+_ENSMUSG00000000305_ENSMUST00000000314|mus_hu|mus_mus_mus_hu_False|88_98 (ssRNA)
RNA: GGGAGUUCUACAGUCCGACGAUCGCUGUCCCAUGCAGUGACGGUAAAGGCCACCUGCUCGGAGGGGACCUGCAGCUCCCGGGUGGCGAAGACUGUCCCAUCUGCCCCAACUUUGAAGUCCAUGCUGUUGGUCUCAUAUUGUGUCAACAGAGGAUUGAGCAUCA
B10: chr3:176740097:176740098:-_ENSG00000177565_ENST00000430069|hu_mus|hu_hu_hu_mus_True|1_1 (ssRNA)
RNA: GGGAGUUCUACAGUCCGACGAUCUGUUUUGUAUACCACAAAAGGAGGCACUUUCAGUAUCUGCAAAAGGUGUUUAGUCCUAAAACAUACUCACCUAGAGGAUAACUCAGGAAAACAAUCUGUUACACUCUAAGACCUUAGGAACAACAGAGGAUUGAGCAUCA
B11: 109382605_109382725_5796_CDS_ENSG00000153201_ENST00000283195|human|control|control (ssRNA)
RNA: GGGAGUUCUACAGUCCGACGAUCCUUUUCUUGAUUUCCUGGUUCCGAAAUGCCAAAUUUAAAUCCAUCAGCAGACACAGGGAUGGAAAAUCCUUCUUUGGUUGACUUAAAUUCUGUAUUAGAAGAACCCUGAAACAUAAAUGACAACAGAGGAUUGAGCAUCA
B12: chr1:39494564:39494565:+_ENSG00000168653_ENST00000372967|hu_hu|hu_hu_hu_mus_True|38_38 (ssRNA)
RNA: GGGAGUUCUACAGUCCGACGAUCAUGCAUUCGCCUCAUCGUUUUGUACCGAAGCAAGCACUCUUCGAAGUCAUCGAACUCUAUCUUGCACUCCUUUUCUGCCCGAGUCCCACCGAUCCCGUGUGCACACUCUAUCCACUCUUUCAACAGAGGAUUGAGCAUCA
B13: 122463516_122464057_2619_3pUTR_ENSMUSG00000034602_ENSMUST00000073792|mouse|control|control (ssRNA)
RNA: GGGAGUUCUACAGUCCGACGAUCCUUUAGUCCCAGAAUCCACACAAGAUGCUGAAGAGUUGCCAGAACAAGUUGCCAUGAUGUUCCAAGAACAGCGCCGUGACAGUGGGCCAAGUUCAGCAGAGUCCUCAUGCACUGAAUAUUCAACAGAGGAUUGAGCAUCA
B14: chr14:78183846:78183847:+_ENSG00000119705_ENST00000557342|hu_hu|hu_hu_hu_mus_False|1_28 (ssRNA)
RNA: GGGAGUUCUACAGUCCGACGAUCUCUCAGAAAUCUUUCUUCAUCAGAUGUUUGAGCUCCGUGCAAAGCCUUUGCUCUUUGAGCUUGAACGUGGAUCUAUGGGAGGGCUAUAAUAUGCAGAAAAGGUAAUUUUUUUUUCCGAAGCAACAGAGGAUUGAGCAUCA
B15: chr2:173429262:173429263:+_ENSG00000152256_ENST00000410055|hu_mus|FALSE|FALSE (ssRNA)
RNA: GGGAGUUCUACAGUCCGACGAUCGCUCUCCUUGUAUUCAGUCACACCCUGGGCCAUGGUGGGAAUGACAUCAUUGUGCCGGUUUCUGAUCCUUAUCACUGUGUCUGUGAAUUCAUAAAUAGUUUUAGCAUCUUCAGCACUUUUCAACAGAGGAUUGAGCAUCA
B16: chr4:140556289:140556290:+_ENSMUSG00000036622_ENSMUST00000037055|mus_mus|mus_mus_mus_hu_False|38_88 (ssRNA)
RNA: GGGAGUUCUACAGUCCGACGAUCGAUGGAGCUCACCAGGCCCCCUUUGGCUGUGCAGAACCCUGUGCGGGUCACCACUGCCAGGACGUGCGGUCCCACGUAGGCUCGGGCCUGCAAGAUGAGGGUCCCGCAGAAGAGUGUGUGCAACAGAGGAUUGAGCAUCA
B17: chr12:72996793:72996794:+_ENSMUSG00000034574_ENSMUST00000085299|mus_hu|FALSE|FALSE (ssRNA)
RNA: GGGAGUUCUACAGUCCGACGAUCAGGGGGCAUGGGCAAUGCUGGUUCCAUGGUCUGAAGCGCAAAGUUGCUAUCAUUUCGCAGCCGAUACGUGAUUUCUGGGUGAUCAUUAUUUCGGAAACAGCAAAAGAUGAAUGAAAUACCCAACAGAGGAUUGAGCAUCA
B18: chr10:21962475:21962476:+_ENSG00000078403_ENST00000307729|hu_hu|FALSE|FALSE (ssRNA)
RNA: GGGAGUUCUACAGUCCGACGAUCUUCAAAGCUUUUAGGCUGUGAAGUAACAGCUGAGGUUGAAGGGAGGCCAAUUAAGGUACUAAAACUAUUUACCCCCCCUUCCUGGCUUCCAGACUCUCCUUUAUGUACAUCUUUGGUUGCCAACAGAGGAUUGAGCAUCA
B19: chr17:15081082:15081083:+_ENSMUSG00000050088_ENSMUST00000052691|mus_hu|motif|central (ssRNA)
RNA: GGGAGUUCUACAGUCCGACGAUCUCCCAGAGUGUGGUCAACGACUCAAAAGAGAAUUUCAAGUACCAGUUUCAAAAUGCGGAUUAAUAUCGUCCAGAGAACAGAUUCCUCCUCUUGCGAGGCGUCUUCCGGGGCACCAGCGUGCAACAGAGGAUUGAGCAUCA
B20: chr1:39494564:39494565:+_ENSG00000168653_ENST00000372967|hu_hu|FALSE|FALSE (ssRNA)
RNA: GGGAGUUCUACAGUCCGACGAUCACCUGCACGUCUCAUCGUUUUCUGCCGAAGCAAACACUCUACGAAAUCAUCAUAUUCUAUCUUGCACUCUUUCUCUGCCCGAGUAUAACCGAUUCCAUGUGCACAUUCUAUCCAUUCUUUCAACAGAGGAUUGAGCAUCA
B21: chr11:29606814:29606815:+_ENSMUSG00000020458_ENSMUST00000102843|mus_hu|motif|central (ssRNA)
RNA: GGGAGUUCUACAGUCCGACGAUCCAAUUUAGUAAGAGCUGUAGGUAACUCUUGUUGAUUAUGAAGGAUGUUAUUACGGACGGACUUCUCUUCUUCAUCUUUAUUUUUCACGAUUAUUUCUUCCCUAGGAUUUGCUACUAUUACCAACAGAGGAUUGAGCAUCA
B22: 216737564_216737684_952_CDS_ENSG00000196482_ENST00000408911|human|control|control (ssRNA)
RNA: GGGAGUUCUACAGUCCGACGAUCAAUAUGCUUCGCCCAUCCAAUGAUAACCACCAACUCUCGGUCGGCCAAGUCACACAGUGUAGUGAGGGCUUUGAUGUCACUGUCGGGGACAGUAGGGUCAGGCAUGGCAUAGAUCUUCUCCAACAGAGGAUUGAGCAUCA

The target in the assay is T1, UNK ZnF1-3. As to the kind of experiment: nsRBNS (natural sequence RNA bind-n-seq); RBNS binding buffer (assumed for nsRBNS): 25 mM Tris pH 7.5, 150 mM KCl, 3 mM MgCl2, 0.01% Triton X-100, 500 ug/ml BSA, 20 U/ml SUPERase-In, 4 C; UNK is unkempt and MSI1 is Musashi-1; names of the RNAs are library labels; protein concentration not given here; high values mean tight binding.
In turn, B1 had a binding signal of 0.902 enrichment R. The figure for B2 is 0.919 enrichment R.

Molecule B3 yielded a binding signal of 2.08 enrichment R. The figure for B4 is 0.981 enrichment R; for B5 it is 1.06 enrichment R; for B6 it is 0.531 enrichment R.

B7: the binding signal amounted to 0.867 enrichment R. The molecule B8 gave a binding signal of 0.856 enrichment R. The figure for B9 is 0.874 enrichment R; for B10 it is 0.817 enrichment R; for B11 it is 0.601 enrichment R. In the case of B12 it was 0.675 enrichment R; in that of B13, 1.02 enrichment R. The figure for B14 is 1.31 enrichment R; for B15 it is 0.853 enrichment R; for B16 it is 1.02 enrichment R. For the molecule B17, the binding signal is 0.961 enrichment R. The figure for B18 is 0.81 enrichment R; for B19 it is 1.07 enrichment R; for B20 it is 0.668 enrichment R. In the case of B21 it was 0.702 enrichment R; in that of B22, 1.06 enrichment R.

The values above are taken from publication PMC12136788.
